# What was measured:
# [1] = test system: Z138 cells; assay: Z138 cell proliferation assay (XTT); type: cell-based; details: Homo sapiens, Z-138, 168 h, 7 day treatment, 9-point dose response starting with 10 μM, XTT read at 465 nm
# Method: Z138 cells were seeded in a 96-well round-bottom plate and treated with varying concentration of compound. The final DMSO concentration was maintained at 0.05%. The selected compounds of present invention were screened in a 9-point dose response format starting with 10 μM and 1/3rd serial dilution. On the 4th day, cells were spun down and media was replaced while maintaining the initial compound concentration in each well. At the end of the 7th day, cells were spun down and media was aspirated. 50 µL of XTT containing media was added to the wells. The plates were read using the M3 spectrophotometer at 465 nm. GI50 values were calculated by fitting the dose response data to sigmoidal curve fitting equation using GraphPad Prism software V7.
# The compounds were screened in the above mentioned assay procedures for determining IC50 and GI50 values in inhibiting PRMT5.
# [2] = target: PRMT5/MEP50 Complex (Homo sapiens (Human), UniProt O14744); assay: PRMT5 inhibition based on TR-FRET assay; type: biochemical; details: 32 nM PRMT5:MEP50 complex, 50 nM Histone-H4 peptide, 1 μM SAM, 90 minutes at room temperature
smiles,measurement,setting,value
"O=C(c1ncc(-c2ccc(CN3CCN(C[C@H](O)CN4CCc5ccccc5C4)C3=O)cn2)cn1)N1CCCC1 [Compound 103, (R)-1-(3-(3,4-dihydroisoquinolin-2(1H)-yl)-2-hydroxypropyl)-3-((6-(2-(pyrrolidine-1-carbonyl)pyrimidin-5-yl)pyridin-3-yl)methyl)imidazolidin-2-one]",GI50,[1],100 to 300 nM
same,IC50,[2],39 nM

# Source: patent US11542275B2, “Substituted imidazolidin-2-one derivatives as PRMT5 inhibitors” (Aurigene Discovery Technologies Limited, priority 2018, dated 2023)
